From article PMC4336329 (PLoS ONE, 2015)
The campaign covered roughly 310,000 compounds. About 2,200 (0.71%) showed an effect of 50% or more. Effects have a minus sign here. The list shows a part of the results.

Biological target: human ether-à-go-go-related gene (hERG) potassium channel (human, UniProt Q12809)
Experiment: primary screen, population patch clamp on CHO cells stably expressing hERG

human ether-à-go-go-related gene (hERG) potassium channel, sequence (Q12809 whole entry, looked up): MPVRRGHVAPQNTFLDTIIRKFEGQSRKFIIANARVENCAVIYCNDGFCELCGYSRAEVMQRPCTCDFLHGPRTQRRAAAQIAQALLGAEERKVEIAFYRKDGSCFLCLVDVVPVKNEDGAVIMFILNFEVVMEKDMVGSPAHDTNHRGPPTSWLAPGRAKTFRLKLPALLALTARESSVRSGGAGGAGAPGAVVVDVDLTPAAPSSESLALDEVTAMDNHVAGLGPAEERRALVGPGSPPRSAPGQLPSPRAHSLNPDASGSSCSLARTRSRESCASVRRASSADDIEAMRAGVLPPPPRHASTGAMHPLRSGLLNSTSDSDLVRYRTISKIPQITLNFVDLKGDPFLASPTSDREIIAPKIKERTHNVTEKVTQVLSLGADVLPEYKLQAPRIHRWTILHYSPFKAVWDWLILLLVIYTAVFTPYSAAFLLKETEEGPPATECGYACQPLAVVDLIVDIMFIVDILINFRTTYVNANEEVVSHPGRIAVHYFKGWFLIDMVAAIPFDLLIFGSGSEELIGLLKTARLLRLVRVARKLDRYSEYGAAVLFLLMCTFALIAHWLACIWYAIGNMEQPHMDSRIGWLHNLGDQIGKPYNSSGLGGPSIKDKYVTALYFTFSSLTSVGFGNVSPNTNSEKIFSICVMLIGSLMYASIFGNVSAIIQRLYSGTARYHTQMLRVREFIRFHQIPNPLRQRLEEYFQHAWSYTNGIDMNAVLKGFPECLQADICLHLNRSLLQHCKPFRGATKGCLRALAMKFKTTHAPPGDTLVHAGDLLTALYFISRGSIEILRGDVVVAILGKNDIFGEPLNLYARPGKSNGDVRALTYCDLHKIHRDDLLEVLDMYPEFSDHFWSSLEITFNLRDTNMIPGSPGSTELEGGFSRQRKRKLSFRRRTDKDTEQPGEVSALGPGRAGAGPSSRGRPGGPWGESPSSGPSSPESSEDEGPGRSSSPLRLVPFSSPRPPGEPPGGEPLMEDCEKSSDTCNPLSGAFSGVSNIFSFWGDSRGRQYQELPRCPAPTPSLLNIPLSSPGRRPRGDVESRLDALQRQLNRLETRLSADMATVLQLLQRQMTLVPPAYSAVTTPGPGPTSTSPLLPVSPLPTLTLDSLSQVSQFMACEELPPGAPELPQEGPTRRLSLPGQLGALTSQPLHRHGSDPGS

| SMILES | hERG current change (%, negative = inhibition) at 1uM [%] |
| --- | --- |
| OCC[C@H]1C[C@@H](O)[C@H](O)[C@@]2(CCCc3ccccc3O2)O1 | 11.3 |
| Cc1ccc(-n2c(O)c(C=Nc3ccc(S(=O)(=O)N(C)C)cc3)c(=O)[nH]c2=O)cc1 | 13.9 |
| O=C(NCc1ccco1)c1ccc2c(=O)n(CCC3=CCCCC3)c(=O)[nH]c2c1 | 17.7 |
| O=C(NNC(=S)NC(=O)c1cccc([N+](=O)[O-])c1)c1ccc(O)cc1 | 16.1 |
| CCN(CC)S(=O)(=O)c1ccc2c(c1)C(=NO)c1cc(S(=O)(=O)N(CC)CC)ccc1-2 | 5.26 |
| Cc1cc2nc(SCC(=O)Nc3nonc3C)c3c(c2cc1C)CCCC3 | 4.6 |
| Cc1cccc(N2C(=O)N3[C@H](c4ccc(Cl)cc4)[C@@H]4C(=O)N(C5CCCCC5)C(=O)[C@@H]4[C@]3(Cc3ccc(Cl)cc3)C2=O)c1 | 6.27 |
| CC(C)CCNC(=O)Cc1ccccc1[N+](=O)[O-] | -1.26 |
| Cc1nn(C)cc1/C=C(/C#N)C(N)=O | 9.79 |
| O=C(Nc1ccc(N2CCOCC2)cc1)c1ccc(Cl)c(S(=O)(=O)N2CCCCC2)c1 | 14.3 |
| COc1ccc2c(c1)c1nc3ccccc3nc1n2CCCN1C(=O)c2ccccc2C1=O | 7.9 |
| COc1ccc(OCCn2cnc3ccccc32)cc1 | 5.37 |
| COc1c(C)cc(C(=O)C2CCCN(C3CCOCC3)C2)cc1C (stereo not shown) | 0.691 |
| CCCn1c(=O)c2ccccc2n2c(SCC(=O)N3CCc4ccccc4C3)nnc12 | 11.2 |
| C#Cc1ccc2c(c1)COc1c3ccccc3nn1-2 | 9.48 |
| COC/C=C/C1=CC2=CC(=O)C(C)(OC(=O)c3cnc4ccccc4n3)C(=O)C2=CN1CCCOC(C)C (stereo not shown) | 4.37 |
| CCCCCC(/C=N/Nc1ccc(S(=O)(=O)N2CCOCC2)cc1[N+](=O)[O-])=C\c1ccccc1 | 11.1 |
| CC1(C)C2CCC1(CS(=O)(=O)N1CCC(C(N)=O)CC1)C(=O)C2 (stereo not shown) | 0.553 |
| Cc1cccc(C(=O)NCCc2nnc(SCC(=O)Nc3nc(C)cs3)n2C)c1 | 1.36 |
| O=c1c2oc3ccccc3c2ncn1Cc1ccc(Cl)cc1 | 6.5 |
| O=C(NCc1ccc(Cl)cc1)c1cccc(S(=O)(=O)N2CCCC2)c1 | -1.68 |
| Cc1ccc(C(=O)N(CC(C)C)c2c(N)n(Cc3ccccc3)c(=O)[nH]c2=O)o1 | 8.34 |

| SMILES | hERG current change (%, negative = inhibition) at 1uM [%] |
| --- | --- |
| Cc1cc(C)c2c(c1)SC1=NC(c3ccccc3)(C(F)(F)F)NC(=O)N12 (stereo not shown) | 16.3 |
| O=C(COC(=O)c1c2c(nc3ccccc13)CCCCC2)c1ccc(Cl)s1 | 8.05 |
| CNc1nnc(CSc2nc(C)cc(C)n2)s1 | 10.8 |
| CC(=O)Nc1cccc(NC(=O)CSc2nc3c(=O)n(C)c(=O)n(C)c3n2C)c1 | 12.6 |
| CCCOC(=O)Cc1n[nH]c(=O)[nH]c1=O | 7.23 |
| CCOc1cc(Br)c(C(=O)O)cc1OCC | 10.3 |
| Cc1ccc(C)c(Cc2c(C)nc3c(C(=O)NCc4ccc5c(c4)OCO5)cnn3c2C)c1 | -7.34 |
| Clc1ccc(CSc2ncccn2)cc1 | 19.7 |
| CCOC(=O)CC1(NC(=O)c2cc(COc3c(F)cccc3F)on2)CCCCC1 | 9.32 |
| CCn1nc(C(=O)NNC(=O)c2ccccc2OCc2c(C)noc2C)c2ccccc2c1=O | 9.55 |
| CCn1cc(Cl)c(C(=O)N2N=C3/C(=C/c4cccs4)CCCC3C2c2cccs2)n1 (stereo not shown) | -11 |
| COc1ccc(OC)c(N2C(=O)[C@@H]3C(c4ccccc4Cl)=NO[C@@H]3C2=O)c1 | 12.3 |
| CC(C)c1ccc(C2NC(=S)NC3=C2C(=O)CC(C)(C)C3)cc1 (stereo not shown) | 10.9 |
| COc1ccc(-c2n[nH]c(=S)n2/N=C/C=C/c2ccccc2OC)cc1 | 4.69 |
| COc1ccc(CCNC(=O)C2CCCN(c3ncnc4c3nc3n4CCCCC3)C2)c(OC)c1 (stereo not shown) | 0.102 |
| Cc1ccc(Cn2nnnc2CN2CCC(c3nc4ccc(Cl)cc4[nH]3)CC2)cc1 | 4.97 |
| COCC[N+]1(C)CCCCC1.[I-] | 7.75 |
| Cn1c(=O)c2c(ncn2CC(=O)Nc2nc3ccc(F)cc3s2)n(C)c1=O | -1.86 |
| COc1ccc(NCc2nnc(SCC(=O)c3ccc(OC)cc3)n2C)cc1 | 6.84 |
| CC(=O)Nc1nc(C)c(Oc2ccc(Cl)cc2)c(=O)[nH]1 | 12.8 |
| CC(C)(C)C1CCC(=NNc2ccc(S(N)(=O)=O)cc2[N+](=O)[O-])CC1 (stereo not shown) | 9.23 |
